The record followed here is PubChem BioAssay (NCI).

This assay relates to NCI-H322M lung. The assay can be described thus: growth of human tumour cells (NCI), 48 h.

The structures appear in SMILES notation.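 Where inhibition never reached the appropriate level, the endpoint shown equals the highest concentration tested. Otherwise, values were interpolated linearly from a five-concentration, 48-hour dose response in 96-well plates. Here, GI50 denotes the concentration required for 50% inhibition of growth. The concentration for full growth arrest is given as TGI.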 A value given as a limit tells only on which side of the number the result lay.

`COc1ccc(C(=O)/C=C/c2c(F)cccc2Cl)cc1S(N)(=O)=O`: the GI50 was 3.06 µM and the TGI came to 13.1 µM.
In the same order, the values of `Fc1ccc(/C=C/c2nc3ccccc3n3c(-c4ccc(Cl)cc4)nnc23)cc1` are > 100 µM and > 100 µM.
In the same order, the values of `COc1ccc(C(=O)/C=C/c2cccc(Br)c2)cc1S(N)(=O)=O` are 2.26 µM and 8.99 µM.
The like results for `COc1ccc(N=Nc2c(N)nn3c(-c4cc5cc(Br)ccc5oc4=O)ccnc23)cc1` were, in that order, 4.15 µM and 21.8 µM.
Take `CC1=C2C(=C[C@@](C)(COP(=O)(Oc3ccccc3)Oc3ccccc3)[C@@H]2O)C(=O)[C@@](C)(O)C12CC2`: the GI50 was 0.776 µM and the TGI was determined as 2.43 µM.
The like results for `CN(C)c1nc(NCCNS(=O)(=O)c2ccc(C3=Nc4c(N)nc(N)nc4NC(c4ccccc4)C3)cc2)nc(Nc2ccc(F)cc2)n1` (centres undefined) were, in that order, > 100 µM and > 100 µM.
The like results for `O=c1[nH]c2ccc(Cl)cc2cc1CSc1ccc(Nc2nccc(-c3ccc(Cl)cc3)n2)cc1` were, in that order, 30.9 µM and > 100 µM.
